Reference: publication PMC6451091
Some of the results follow. For some of these results: At the low end of the ranking, values are background and their order means little. For some of these results: Measured with an extract: partners may take part in the binding.

What follows are sequences tested against PU.1 (IVT) (UniProt P17947) (assay: protein-binding microarray (PBM)). Details: 20 mM HEPES pH 7.9, 100 mM NaCl, 1 mM DTT, 0.2 mg/mL BSA, 0.02% Triton X-100, 2% milk, 0.4 mg/mL salmon testes DNA; 1 h; temperature not stated; high values mean tight binding; double strand, one strand shown; sequences stand for … in GCCTAGCAC…GTGCTAGGTCTTGATTCGCTTGACGCTGCTG.

Sequence	binding signal
GAGGGACGAGTCTACAGGGG	-0.767 z-score
AGATTGTCTGCGTGAAAGTA	0.0514 z-score
CACAGAATATGGAGGAAAAT	0.135 z-score
GCTGCCTGAAAATGTGGCTC	-0.446 z-score
TTGGTGCTCATTTCCTTCCT	0.23 z-score
CAGGTATTCGTGACTAGTCC	-0.796 z-score
CTTTTTTGCTTGCATGAGGA	-0.0187 z-score

What follows are sequences tested against PU.1 (endogenous, THP-1 nuclear extract) (UniProt P17947) (assay: nuclear extract protein-binding microarray (nextPBM)). Details: 20 mM HEPES pH 7.9, 100 mM NaCl, 1 mM DTT, 0.2 mg/mL BSA, 0.02% Triton X-100, 2% milk, 0.4 mg/mL salmon testes DNA; 1 h; temperature not stated; high values mean tight binding; double strand, one strand shown; sequences stand for … in GCCTAGCAC…GTGCTAGGTCTTGATTCGCTTGACGCTGCTG.

Sequence	binding signal
GATTGGCCATGCTGACGCTG	-0.445 z-score
GTTTGCTTACTGCCGGGACA	-0.663 z-score
TTGAGATGTGAGTTGGATTC	-0.364 z-score
ATAACACATGTAGAGGAATA	0.428 z-score
TACTATATATGTGGTCACCC	-0.361 z-score
TTCACGCCATTCTCCTGCCT	0.373 z-score
GGTTTAAAACGGGAAAACGA	0.728 z-score
GGTGGAACCCTCGAATTCTT	-0.466 z-score
GCATCGTCGGTGTATTTTGT	-0.482 z-score
GTCCAAAGTGGTCCTGGGAA	1.51 z-score
GAGGCTGGCTGTGGCTCAAC	-0.393 z-score
AGCAAAAATTTTTAACCCAA	-0.662 z-score
GATCCGTCAAAATGGGCCTC	-0.522 z-score
GGACTTCTCACTGGGCATAA	0.682 z-score
CGCACCCCGCCTCCCTGGCC	0.0605 z-score
AGCCCTGGGCAGCAGCCAGG	-0.0273 z-score
TACAACAAAAACTACTATTC	-0.347 z-score
AAGAGGCCGAGGACCACAGC	0.144 z-score
GCCAGCCCCCAACCCTGGTC	-0.25 z-score
CATAACATAAAATTTACCAT	-0.47 z-score

Sequence	binding signal
TGAGAGGCTGCGTGAAACCT	-0.041 z-score
AAGAAAGCTGCCTGAAAGTA	-0.566 z-score
CTGTGCTAAAATCTGCCTCC	-0.0706 z-score
TGGTTGTACCACACCTCAAC	-0.215 z-score
AATTTTCCTTACGCAAATCT	-0.58 z-score
AAGTGGCATATTTAAAAATC	-0.346 z-score
ACACAAAGTGGCAAGATGCT	-0.227 z-score
GTTGCCATCATCTCTATAGC	-0.418 z-score
AAATGCAGAAGTCATTTAAA	3.51 z-score
ATGAAAAGAAAACCAAGATA	-0.592 z-score
ACAAACAAACAAAAGCTCAC	0.295 z-score
GTGAGCTTTTTGTCTTCAAA	-0.239 z-score
ACAAACAGAAGTTACCACTT	0.891 z-score
GAGGGACGAGTCTACAGGGG	-0.391 z-score
AGATTGTCTGCGTGAAAGTA	-0.446 z-score
CACAGAATATGGAGGAAAAT	-0.0327 z-score
GCTGCCTGAAAATGTGGCTC	-0.548 z-score
TTGGTGCTCATTTCCTTCCT	0.387 z-score
CAGGTATTCGTGACTAGTCC	-0.262 z-score
CTTTTTTGCTTGCATGAGGA	-0.554 z-score

Each sequence was assayed against T1, FLI1 (endogenous, THP-1 nuclear extract) (UniProt Q01543) in the same assay as above. Details: 20 mM HEPES pH 7.9, 100 mM NaCl, 1 mM DTT, 0.2 mg/mL BSA, 0.02% Triton X-100, 2% milk, 0.4 mg/mL salmon testes DNA; 1 h; temperature not stated; high values mean tight binding; double strand, one strand shown; sequences stand for … in GCCTAGCAC…GTGCTAGGTCTTGATTCGCTTGACGCTGCTG.
T1 sequence: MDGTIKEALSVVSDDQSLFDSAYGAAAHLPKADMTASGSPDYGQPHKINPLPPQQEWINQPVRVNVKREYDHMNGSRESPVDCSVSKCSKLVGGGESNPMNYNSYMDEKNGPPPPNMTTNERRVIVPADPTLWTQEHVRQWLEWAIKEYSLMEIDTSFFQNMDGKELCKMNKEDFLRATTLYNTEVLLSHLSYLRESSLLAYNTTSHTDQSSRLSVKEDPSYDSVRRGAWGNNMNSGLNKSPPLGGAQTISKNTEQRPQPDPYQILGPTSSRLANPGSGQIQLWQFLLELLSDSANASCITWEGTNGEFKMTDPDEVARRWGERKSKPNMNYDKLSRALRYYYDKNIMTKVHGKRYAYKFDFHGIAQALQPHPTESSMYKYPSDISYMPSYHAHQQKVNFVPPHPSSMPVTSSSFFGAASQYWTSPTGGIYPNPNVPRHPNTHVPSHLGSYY

Sequence	binding signal
GATTGGCCATGCTGACGCTG	-1.02 z-score
GTTTGCTTACTGCCGGGACA	0.0825 z-score
TTGAGATGTGAGTTGGATTC	-0.76 z-score
ATAACACATGTAGAGGAATA	0.0975 z-score
TACTATATATGTGGTCACCC	-0.0492 z-score
TTCACGCCATTCTCCTGCCT	0.317 z-score
GGTTTAAAACGGGAAAACGA	1.32 z-score
GGTGGAACCCTCGAATTCTT	-0.67 z-score
GCATCGTCGGTGTATTTTGT	-0.272 z-score
GTCCAAAGTGGTCCTGGGAA	1.29 z-score
GAGGCTGGCTGTGGCTCAAC	-0.522 z-score
AGCAAAAATTTTTAACCCAA	-0.457 z-score
GATCCGTCAAAATGGGCCTC	-0.402 z-score
GGACTTCTCACTGGGCATAA	-0.198 z-score
CGCACCCCGCCTCCCTGGCC	-0.704 z-score
AGCCCTGGGCAGCAGCCAGG	-0.831 z-score
TACAACAAAAACTACTATTC	-0.066 z-score
AAGAGGCCGAGGACCACAGC	-0.675 z-score
GCCAGCCCCCAACCCTGGTC	-0.844 z-score
CATAACATAAAATTTACCAT	0.261 z-score

Sequence	binding signal
TGAGAGGCTGCGTGAAACCT	-0.456 z-score
AAGAAAGCTGCCTGAAAGTA	-0.154 z-score
CTGTGCTAAAATCTGCCTCC	-0.218 z-score
TGGTTGTACCACACCTCAAC	-0.346 z-score
AATTTTCCTTACGCAAATCT	0.5 z-score
AAGTGGCATATTTAAAAATC	-0.525 z-score
ACACAAAGTGGCAAGATGCT	-0.486 z-score
GTTGCCATCATCTCTATAGC	0.167 z-score
AAATGCAGAAGTCATTTAAA	0.071 z-score
ATGAAAAGAAAACCAAGATA	0.0182 z-score
ACAAACAAACAAAAGCTCAC	0.191 z-score
GTGAGCTTTTTGTCTTCAAA	-0.337 z-score
ACAAACAGAAGTTACCACTT	-0.42 z-score
GAGGGACGAGTCTACAGGGG	-0.323 z-score
AGATTGTCTGCGTGAAAGTA	-0.563 z-score
CACAGAATATGGAGGAAAAT	0.741 z-score
GCTGCCTGAAAATGTGGCTC	-0.144 z-score
TTGGTGCTCATTTCCTTCCT	2.81 z-score
CAGGTATTCGTGACTAGTCC	-0.802 z-score
CTTTTTTGCTTGCATGAGGA	-0.298 z-score

What follows are sequences tested on PU.1 (endogenous, THP-1 nuclear extract) + IRF8 (endogenous, THP-1 nuclear extract) in the same assay as above. Details: 20 mM HEPES pH 7.9, 100 mM NaCl, 1 mM DTT, 0.2 mg/mL BSA, 0.02% Triton X-100, 2% milk, 0.4 mg/mL salmon testes DNA; 1 h; temperature not stated; high values mean tight binding; double strand, one strand shown; sequences stand for … in GCCTAGCAC…GTGCTAGGTCTTGATTCGCTTGACGCTGCTG.

Sequence	binding signal
GATTGGCCATGCTGACGCTG	-0.514 z-score
GTTTGCTTACTGCCGGGACA	0.0253 z-score
TTGAGATGTGAGTTGGATTC	0.177 z-score
ATAACACATGTAGAGGAATA	1.85 z-score
TACTATATATGTGGTCACCC	-0.874 z-score
TTCACGCCATTCTCCTGCCT	0.5 z-score
GGTTTAAAACGGGAAAACGA	-1.5 z-score
GGTGGAACCCTCGAATTCTT	-0.136 z-score
GCATCGTCGGTGTATTTTGT	0.159 z-score
GTCCAAAGTGGTCCTGGGAA	0.859 z-score
GAGGCTGGCTGTGGCTCAAC	-0.426 z-score
AGCAAAAATTTTTAACCCAA	-0.638 z-score
GATCCGTCAAAATGGGCCTC	-0.594 z-score
GGACTTCTCACTGGGCATAA	-0.258 z-score
CGCACCCCGCCTCCCTGGCC	0.873 z-score
AGCCCTGGGCAGCAGCCAGG	1.83 z-score
TACAACAAAAACTACTATTC	-0.0817 z-score
AAGAGGCCGAGGACCACAGC	1.06 z-score
GCCAGCCCCCAACCCTGGTC	-0.181 z-score
CATAACATAAAATTTACCAT	0.707 z-score

Sequence	binding signal
TGAGAGGCTGCGTGAAACCT	2.41 z-score
AAGAAAGCTGCCTGAAAGTA	1.05 z-score
CTGTGCTAAAATCTGCCTCC	-1.35 z-score
TGGTTGTACCACACCTCAAC	-0.208 z-score
AATTTTCCTTACGCAAATCT	0.387 z-score
AAGTGGCATATTTAAAAATC	0.627 z-score
ACACAAAGTGGCAAGATGCT	-0.287 z-score
GTTGCCATCATCTCTATAGC	-0.483 z-score
AAATGCAGAAGTCATTTAAA	-0.682 z-score
ATGAAAAGAAAACCAAGATA	1.01 z-score
ACAAACAAACAAAAGCTCAC	0.455 z-score
GTGAGCTTTTTGTCTTCAAA	-0.0214 z-score
ACAAACAGAAGTTACCACTT	-1.72 z-score
GAGGGACGAGTCTACAGGGG	-0.0288 z-score
AGATTGTCTGCGTGAAAGTA	0.687 z-score
CACAGAATATGGAGGAAAAT	0.0202 z-score
GCTGCCTGAAAATGTGGCTC	-0.485 z-score
TTGGTGCTCATTTCCTTCCT	0.618 z-score
CAGGTATTCGTGACTAGTCC	-1.05 z-score
CTTTTTTGCTTGCATGAGGA	0.484 z-score
